This is an account of results in article PMC4336329 (PLoS ONE, 2015).

Each structure is given as a SMILES string. The whole screen tested about 310,000 compounds, of which about 2,200 (0.71%) showed an effect of 50% or more. The effect is printed as a negative number. This is one part of the list.

The target in the assay is human ether-à-go-go-related gene (hERG) potassium channel (human, UniProt Q12809). The assay can be described thus: primary screen, population patch clamp on CHO cells stably expressing hERG.
Chain of human ether-à-go-go-related gene (hERG) potassium channel (Q12809 whole entry, looked up): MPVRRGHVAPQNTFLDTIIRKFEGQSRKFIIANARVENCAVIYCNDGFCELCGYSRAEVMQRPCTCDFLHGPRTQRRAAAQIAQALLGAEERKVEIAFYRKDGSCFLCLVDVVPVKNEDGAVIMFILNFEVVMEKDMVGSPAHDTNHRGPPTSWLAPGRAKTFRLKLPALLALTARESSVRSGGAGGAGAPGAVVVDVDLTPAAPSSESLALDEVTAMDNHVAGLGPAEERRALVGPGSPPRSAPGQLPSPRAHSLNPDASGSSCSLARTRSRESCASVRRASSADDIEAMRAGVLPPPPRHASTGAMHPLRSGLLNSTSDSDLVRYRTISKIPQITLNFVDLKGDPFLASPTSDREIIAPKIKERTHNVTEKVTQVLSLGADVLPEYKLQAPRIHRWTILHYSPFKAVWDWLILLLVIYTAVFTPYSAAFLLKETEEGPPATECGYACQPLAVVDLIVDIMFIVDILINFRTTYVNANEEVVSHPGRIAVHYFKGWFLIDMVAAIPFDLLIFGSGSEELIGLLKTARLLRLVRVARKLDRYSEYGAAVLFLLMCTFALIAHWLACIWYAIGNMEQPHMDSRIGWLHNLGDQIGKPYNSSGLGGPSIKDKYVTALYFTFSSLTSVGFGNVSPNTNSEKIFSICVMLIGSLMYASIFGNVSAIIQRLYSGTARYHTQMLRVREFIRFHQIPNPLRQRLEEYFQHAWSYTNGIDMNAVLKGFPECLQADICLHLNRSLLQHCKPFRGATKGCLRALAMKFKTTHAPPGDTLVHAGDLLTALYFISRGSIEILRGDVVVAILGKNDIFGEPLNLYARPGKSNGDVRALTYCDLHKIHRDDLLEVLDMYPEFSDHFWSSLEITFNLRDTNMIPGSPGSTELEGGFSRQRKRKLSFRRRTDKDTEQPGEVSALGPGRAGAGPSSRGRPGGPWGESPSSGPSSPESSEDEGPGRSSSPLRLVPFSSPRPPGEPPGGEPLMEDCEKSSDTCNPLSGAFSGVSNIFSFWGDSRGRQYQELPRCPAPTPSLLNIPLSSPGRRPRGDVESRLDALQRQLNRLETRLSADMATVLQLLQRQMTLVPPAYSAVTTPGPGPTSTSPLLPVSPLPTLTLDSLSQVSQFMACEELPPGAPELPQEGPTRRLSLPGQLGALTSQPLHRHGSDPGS
On to `CCOC(=O)Cc1csc(NC(=O)COc2ccc(C)c(C)c2)n1`, for which the “hERG current change (%, negative = inhibition) at 1uM” value is 6.54%.

With `Cc1ccc(-c2nc(=S)c3c(n2CCN2CCOCC2)CC(C)(C)OC3)cc1`, the “hERG current change (%, negative = inhibition) at 1uM” value was determined as 10.6%.

Turning to `Cl.O=C(O)c1ccoc1CN1CCCCC1`, the “hERG current change (%, negative = inhibition) at 1uM” value is -15%.

For the compound `CC1=NN(c2ccc(Cl)c(C(=O)O)c2)C(=O)/C1=C/c1ccc(-c2ccccc2[N+](=O)[O-])o1`, the “hERG current change (%, negative = inhibition) at 1uM” value is listed as 18.6%.

Consider `Cc1cc(C)cc(C(=O)N(CCc2ccccc2)C2=CC3CCC(C2)N3C)c1.Cl` (stereo not shown), for which the “hERG current change (%, negative = inhibition) at 1uM” value is recorded as -20.5%.

Turning to `COc1ccc(OC(C)C(=O)NC(C)c2ccccc2)cc1` (stereo not shown), the “hERG current change (%, negative = inhibition) at 1uM” value came out at 9.81%.

For the compound `COc1cccc(CN(C)C(=O)c2cc(S(=O)(=O)NCc3ccccc3)ccc2C)c1OC`, the “hERG current change (%, negative = inhibition) at 1uM” value worked out at 13%.

Regarding `CCOC(=O)/C(N=Nc1sc(C(=O)OC)c(C)c1C(=O)OCC)=C(\O)CCl`, the “hERG current change (%, negative = inhibition) at 1uM” value turned out to be 14.4%.

In the case of `Cc1ccccc1C(=O)NC1CCN(CC(=O)Nc2ccc(Br)cc2)CC1`, the “hERG current change (%, negative = inhibition) at 1uM” value is -15.4%.

Regarding `O=C(COC(=O)c1nc(Cl)ccc1Cl)NNC(=O)c1cccs1`, the “hERG current change (%, negative = inhibition) at 1uM” value stood at 14%.

As to `CN(C(=O)CSc1nnnn1C)C1(C#N)CCCCC1`, the “hERG current change (%, negative = inhibition) at 1uM” value was 9.69%.

With `CCOC(=O)c1c(C)[nH]c(C(C)=O)c1C`, the “hERG current change (%, negative = inhibition) at 1uM” value turned out to be 8.8%.

As for `Cc1cccc(C)c1NC(=O)C1(N(Cc2ccco2)C(=O)CC2NC(=O)NC2=O)CCCC1` (stereo not shown), the “hERG current change (%, negative = inhibition) at 1uM” value is 7.46%.

In the case of `NS(=O)(=O)c1ccc(CCNC(=O)c2cccc(OC(F)F)c2)cc1`, the “hERG current change (%, negative = inhibition) at 1uM” value is 7.56%.

Turning to `OCC1(CCCc2ccccc2)CCN(Cc2cc(F)ccc2F)CC1`, the “hERG current change (%, negative = inhibition) at 1uM” value is listed as -6.63%.

Consider `COc1ccc(OC)c(/C=N/NC(=O)C(=O)N2CCCC2)c1`, for which the “hERG current change (%, negative = inhibition) at 1uM” value is listed as 1.25%.

Consider `CCc1ccccc1NC(=O)c1noc(C(C)C)c1[N+](=O)[O-]`, for which the “hERG current change (%, negative = inhibition) at 1uM” value is listed as 8.54%.

Consider `CCn1c(SCC(=O)Nc2cc(C)on2)nnc1-c1ccc(S(=O)(=O)N2CCCC2)cc1`, for which the “hERG current change (%, negative = inhibition) at 1uM” value was 9.62%.

Turning to `CCCC(=O)OC1CCS(=O)(=O)c2sccc21` (stereo not shown), the “hERG current change (%, negative = inhibition) at 1uM” value came to 8.12%.

For the compound `C/C(CC(=O)Nc1cc(C)ccn1)=N\NC(=O)c1ccc(C(C)(C)C)cc1`, the “hERG current change (%, negative = inhibition) at 1uM” value is 14.2%.

`CCOC(=O)c1[nH]c(C)c(C(=O)/C=C/c2ccc(C(=O)O)cc2)c1C`: the “hERG current change (%, negative = inhibition) at 1uM” value was 14.1%.

Regarding `O=C(CCC(=O)Nc1cccc([N+](=O)[O-])c1)N/N=C/c1cccs1`, the “hERG current change (%, negative = inhibition) at 1uM” value worked out at 7.2%.

Consider `COc1ccc(-c2[nH]ncc2CN2CCC(C(=O)c3ccc(F)cc3)CC2)cc1`, for which the “hERG current change (%, negative = inhibition) at 1uM” value was -70.5%.

With `O=C(COC(=O)c1cccs1)Nc1nc(-c2ccccc2)cs1`, the “hERG current change (%, negative = inhibition) at 1uM” value is 13.9%.

With `COc1ccc(N(CC(=O)NCc2cccs2)S(=O)(=O)c2ccc(F)cc2)cc1`, the “hERG current change (%, negative = inhibition) at 1uM” value amounted to 8.53%.

For `Clc1ccc(COn2c(-c3ccccc3)nc3ccccc32)cc1`, the “hERG current change (%, negative = inhibition) at 1uM” value amounted to 6.5%.

Take `O=C(NCCCCCCNC(=O)C1CCCC1)C1CCCC1`: the “hERG current change (%, negative = inhibition) at 1uM” value is reported as 10.7%.

Turning to `CCOC(=O)N1CCN(c2cc(=O)n(-c3ccc(OCC)cc3)c(=O)[nH]2)CC1`, the “hERG current change (%, negative = inhibition) at 1uM” value is on record as 12.2%.

Consider `C=C1C(C(=O)Nc2cccc(OC)c2)C1C(=O)Nc1cccc(OC)c1` (stereo not shown), for which the “hERG current change (%, negative = inhibition) at 1uM” value came to 14.9%.

As to `CC1CCN(S(=O)(=O)c2cc(Br)cc(C(=O)NC3=NCCS3)c2)CC1`, the “hERG current change (%, negative = inhibition) at 1uM” value is given as -0.219%.

For `Clc1ccc(CSCCc2ccncc2)cc1.O=P(O)(O)O`, the “hERG current change (%, negative = inhibition) at 1uM” value is recorded as -4.31%.

For the compound `COc1ccc(Nc2nc(N)c([N+](=O)[O-])c(N3CCOCC3)n2)cc1`, the “hERG current change (%, negative = inhibition) at 1uM” value was 6.04%.

As to `NC(=O)N1CC(O)CC1C(=O)Nc1ccc(Cl)c(Cl)c1` (stereo not shown), the “hERG current change (%, negative = inhibition) at 1uM” value was determined as 14.7%.

For `CCN(CC)S(=O)(=O)c1cccc(-c2cn3cc(C)ccc3n2)c1`, the “hERG current change (%, negative = inhibition) at 1uM” value was -6.37%.

As to `CCCC(=O)Oc1ccccc1C1SCc2cc(C)c(C)cc2CS1`, the “hERG current change (%, negative = inhibition) at 1uM” value was determined as 4.15%.

For `COc1ccc(C(=S)N2CCN(c3cccc(Cl)c3)CC2)cc1`, the “hERG current change (%, negative = inhibition) at 1uM” value was 11.1%.

As to `Cc1cc(C)c2[nH]c(=O)c(C(c3nnnn3Cc3ccc4c(c3)OCO4)N3CCC(C)CC3)cc2c1` (stereo not shown), the “hERG current change (%, negative = inhibition) at 1uM” value worked out at 13.6%.

As to `COc1ccc(OC)c(/C=C/C(=O)NCCc2nc3ccccc3[nH]2)c1`, the “hERG current change (%, negative = inhibition) at 1uM” value stood at 3.74%.

In the case of `CCN(Cc1ccccc1)C(=O)CCS(=O)(=O)c1ccc2c(c1)CCN2C(C)=O`, the “hERG current change (%, negative = inhibition) at 1uM” value is 13.5%.

As to `CC(C#N)(Nc1ccc(Cl)cc1)c1cccnc1` (stereo not shown), the “hERG current change (%, negative = inhibition) at 1uM” value came out at 6.39%.

In the case of `Fc1ccc(-c2cn(-c3ccccc3)c3[n+]2CCS3)cc1.O.[Br-]`, the “hERG current change (%, negative = inhibition) at 1uM” value is -8.42%.

As to `OCc1ccccc1CN1CCCCCC1`, the “hERG current change (%, negative = inhibition) at 1uM” value was -3.19%.

As for `CCOc1ccc(NC(=O)Nc2cccc(C(=O)O)c2)cc1`, the “hERG current change (%, negative = inhibition) at 1uM” value amounted to 9.55%.

As for `COc1ccc(C(=O)NCc2c(C)oc(C)c2C(=O)O)cc1`, the “hERG current change (%, negative = inhibition) at 1uM” value was 12.2%.

On to `COc1ccc(CCNC(=O)CC2SC(=NCc3ccccc3)NC2=O)cc1` (stereo not shown), for which the “hERG current change (%, negative = inhibition) at 1uM” value turned out to be 4.22%.

For `O=C(NC(=S)N1CCCCCC1)c1cccc([N+](=O)[O-])c1`, the “hERG current change (%, negative = inhibition) at 1uM” value came out at 7.36%.

In the case of `O=C(NC(=S)Nc1ccc2[nH]c(=O)[nH]c2c1)c1ccccc1F`, the “hERG current change (%, negative = inhibition) at 1uM” value was 18.3%.

Turning to `O=S(=O)(NCc1cccnc1)c1ccc(Br)c2ccccc12`, the “hERG current change (%, negative = inhibition) at 1uM” value is 7.97%.

With `CCCCn1c(-c2ccco2)nc2oc3ccccc3c(=O)c2c1=O`, the “hERG current change (%, negative = inhibition) at 1uM” value is recorded as -1.88%.

With `O=C(CCC1CCCC1)Nc1cccc(Cc2ccncc2)c1`, the “hERG current change (%, negative = inhibition) at 1uM” value was -1.67%.

For the compound `CC1(C)NC(=O)N(CCCCSc2ccc(Cl)cc2)C1=O`, the “hERG current change (%, negative = inhibition) at 1uM” value was -3.74%.

In the case of `Cc1nn(Cc2ccc(Cl)cc2)c2sc(C(=O)OCC(N)=O)cc12`, the “hERG current change (%, negative = inhibition) at 1uM” value was 6.37%.

For the compound `Cc1nn(C)cc1S(=O)(=O)N1CCCCC1C` (stereo not shown), the “hERG current change (%, negative = inhibition) at 1uM” value came out at 4.32%.

As to `O=C(OCC(=O)N1CCN(C(=O)c2ccco2)CC1)c1ccc(S(=O)(=O)N2CCCCC2)cc1`, the “hERG current change (%, negative = inhibition) at 1uM” value was -5.32%.

As for `CCOc1ccccc1NC(=O)CSc1ccccc1`, the “hERG current change (%, negative = inhibition) at 1uM” value is on record as 12.3%.

For the compound `CCOc1ccc(N=C(NC#N)SC)cc1`, the “hERG current change (%, negative = inhibition) at 1uM” value amounted to 10.5%.

For the compound `Cc1ccc2nc(-c3ccc(SCC(=O)O)nc3)[nH]c2c1`, the “hERG current change (%, negative = inhibition) at 1uM” value is 20.8%.

For the compound `CCC(C)(NC(=O)c1ccccn1)C(=O)NC1CCCC1` (stereo not shown), the “hERG current change (%, negative = inhibition) at 1uM” value came to 7.95%.
